4 compounds from PubChem BioAssay (NCI) can be followed below.

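Assay format: 96-well plates, 48-hour exposure. TGI is the concentration that stops growth completely.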 Not every entry of the source has a single result; some have several. This list holds those alone. An entry can have further records. The tests behind the records often covered other concentration ranges, which the source does not state; a value can be the end of its range. A value given as a limit tells only on which side of the number the result lay.

Test systems include 786-0 renal; EKVX NSCLC; HCT-116 colon; HT29 colon; MDA-N; NCI-H226 lung; SK-OV-3 ovarian; SN12C renal; SNB-75 CNS; T-47D breast; U251 CNS; DMS 114 small cell lung; MOLT-4 leukemia; DMS 273 small cell lung; HCT-15 colon; K-562 leukemia; KM20L2 colon; OVCAR-8 ovarian; RXF-631 renal.
Assay in all cases: inhibition of tumour cell growth, NCI panel, 48 h

Take `CC[C@@]1(O)C(=O)OCc2c1cc1n(c2=O)Cc2c-1nc1ccc(O)cc1c2CC[Si](C)(C)C`: the TGI with 786-0 renal is 5.18 nM and 1.13 µM; in the test with EKVX NSCLC it was 651 nM and 7.09 µM; with HCT-116 colon it was 47.2 nM and > 100 µM; in the test on HT29 colon, 210 nM and > 100 µM; in the test on MDA-N it was 1.51 µM and > 100 µM; in the test on NCI-H226 lung, < 1 nM and 1.04 µM. For the same compound, the TGI with SK-OV-3 ovarian was 46.7 nM and 787 nM; with SN12C renal, 1.36 nM and > 100 µM; in the test with SNB-75 CNS, 8.95 nM and 21 µM; in the test with T-47D breast, < 1 nM and > 100 µM; with U251 CNS it was 151 nM and 11.4 nM.

For `CN(C)C(=O)/N=c1\ss/c(=N\C(=S)N(C)C)n1-c1ccccc1`, the TGI with DMS 114 small cell lung was 203 nM and > 79.3 µM.

As for `CC(=O)O[C@H]1C(=O)O[C@@H]2C[C@H]3C(C)=CC(=O)[C@@H](O)[C@]3(C)[C@H]3[C@@]4(O)OC[C@]32[C@@H]1[C@@H](C)[C@H]4O`, the TGI in the test on HCT-116 colon was 29.1 nM and 316 nM; with MOLT-4 leukemia, > 100 µM and 66.9 nM; in the test on SN12C renal, 156 nM and 2.04 µM.

`COc1cc2ccc3c4c(OC)cc(OC)c(OC)c4c(=O)n(C)c3c2cc1OC`: the TGI was 3.75 µM and > 100 µM in the test on 786-0 renal; 1.42 µM and > 100 µM with DMS 273 small cell lung; 2.34 µM and > 35.8 µM in the test with HCT-116 colon; 3.88 µM and > 39.8 µM in the test on HCT-15 colon; 3.27 µM and > 100 µM with K-562 leukemia; 1.09 µM and > 34.9 µM in the test on KM20L2 colon. The TGI in the test with OVCAR-8 ovarian was 3.97 µM and > 100 µM; in the test with RXF-631 renal, 2.26 µM and > 100 µM; with SN12C renal, 1.96 µM and > 33 µM.
